Test results taken from PubChem BioAssay AID485344 (National Center for Advancing Translational Sciences (NCATS), 2010).
Several values for one entry are separate records, joined by “and”; a condition that tells them apart may be missing. Equal entries are not always repeated. The campaign covered roughly 340,000 compounds. About 6,900 (2%) were called active. No stated cut-off is given here; in the data, active means inhibition above about 30%; inactive means below that, where a call was filed. The list shows a part of the results, in another mix than the full data. Entries without a call were filed so in the source.

Each compound was assayed against D(2) dopamine receptor (Homo sapiens) (UniProt P14416) (assay: HTS Assay for Allosteric Antagonists of the Human D2 Dopamine Receptor: Primary Screen for Antagonists). Settings: HEK293 TREx D2 cells, calcium flux, dopamine EC80; at 10 µM; stronger effect = higher value.
Method in brief: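 Tetracycline-induced HEK293 TREx cells expressing D2 receptor forced-coupled to calcium signalling, loaded with no-wash calcium dye. Compounds added and calcium flux read 180 s, then dopamine added at EC80 and read a further 180 s.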
Further: 0% is about no effect.

Sequence of UniProt P14416 (P14416 whole entry, looked up): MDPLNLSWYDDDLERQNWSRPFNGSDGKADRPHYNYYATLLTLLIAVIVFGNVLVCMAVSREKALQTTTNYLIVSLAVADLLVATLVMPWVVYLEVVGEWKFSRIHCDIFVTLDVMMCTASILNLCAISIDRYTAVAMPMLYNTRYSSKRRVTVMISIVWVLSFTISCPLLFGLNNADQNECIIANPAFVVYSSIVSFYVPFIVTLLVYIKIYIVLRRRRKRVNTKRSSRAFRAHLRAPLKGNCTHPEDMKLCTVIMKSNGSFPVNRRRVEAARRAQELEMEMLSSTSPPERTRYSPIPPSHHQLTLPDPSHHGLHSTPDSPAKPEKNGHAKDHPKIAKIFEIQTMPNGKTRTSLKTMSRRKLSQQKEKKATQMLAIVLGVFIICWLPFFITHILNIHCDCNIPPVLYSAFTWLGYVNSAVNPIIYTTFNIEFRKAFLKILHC

Row | SMILES | inhibition
1 | CCC(=O)Nc1cc(C(=O)NCC2CCCN2CC)c(OC)cc1N(C)C (stereo not given) | active: 73.2%
2 | CC(=O)c1cccc(NS(=O)(=O)c2ccc3c(c2)NC(=O)CC(=O)N3)c1 | -6.35%
3 | CCN(Cc1ccccc1)C(=O)c1cc2c(s1)-c1c(C)cccc1OC2 | -4.87%
4 | Cc1ccc(Cl)cc1NC(=O)Cn1c(=O)n(Cc2ccc(C(=O)NCc3ccc4c(c3)OCO4)cc2)c(=O)c2ccccc21 | 7.25%
5 | O=C(CN1C(=O)COc2ccc(S(=O)(=O)N3CCOCC3)cc21)N1CCN(c2ccc(F)cc2)CC1 | -2.52%
6 | CC(Sc1nc(=O)cc(N)n1CCc1ccccc1)C(=O)Nc1ccccc1C#N (stereo not given) | -13.6%
7 | O=C(NC1CCCCC1)c1ccc2c(c1)N(Cc1ccc(Cl)cc1)C(=O)c1ccccc1S2(=O)=O | 10.8%
8 | COc1ccc(OC)c(NC(=O)CN2C(=O)CCc3cc(S(=O)(=O)N4CCCCC4)ccc32)c1 | -28.6%
9 | Cc1nnc(NCc2ccccc2)c2c1nnn2Cc1ccc(F)cc1 | 16.1%
10 | CCc1cccc(NC(=O)Cn2nc(-c3cc(C)ccc3C)ccc2=O)c1 | 12.3%
11 | Cc1ccc(CN2C(=O)C3(c4ccccc42)N(c2cccc(C(F)(F)F)c2)C(=O)CS3(=O)=O)cc1 (stereo not given) | 7.07%
12 | O=c1cc(CSc2n[nH]c(-c3ccccc3)n2)[nH]c2ccccc12 | 16.3%
13 | COc1ccccc1NC(=O)CSc1oc(-c2cccs2)nc1S(=O)(=O)c1ccccc1 | -9.74%
14 | COc1cc(NC(=O)c2cc3c(=O)n(Cc4cccs4)ccc3nc2C)cc(OC)c1OC | -17.6%
15 | CC(Oc1ccccc1Cl)C(=O)N1CCN(CCc2ccccn2)CC1 (stereo not given) | 10%
16 | Cc1ccc(C)c(Cn2nc(-c3cc(C)ccc3C)ccc2=O)c1 | 0.0569% and active: 35.3%
17 | CCOC(=O)c1c(S(=O)(=O)N2CCCC(C(=O)N3CCN(c4ccccc4)CC3)C2)c(C)n(C)c1C (stereo not given) | 21.4%
18 | Cc1ccccc1OC(=O)CSc1nnc(-c2cccs2)o1 | 18.4%
19 | COc1ccc(-c2nc3ccccc3o2)cc1NC(=O)COc1ccc(C(C)(C)C)cc1 | -22.3%
20 | COc1cccc(N2CC(NC(=O)c3ccc(S(=O)(=O)N4CCCCC4)cc3)CC2=O)c1 (stereo not given) | 27.8%

Row | SMILES | inhibition
21 | CCOc1ccc(S(=O)(=O)NCC(c2ccco2)S(=O)(=O)c2ccc(F)cc2)cc1 (stereo not given) | 0.979%
22 | CCOC(=O)c1cc2c(=O)n3ccccc3nc2n(CC2CCCO2)c1=NC(=O)c1ccc(C)cc1 (stereo not given) | 0.59%
23 | O=[N+]([O-])c1ccc(C(c2sc3nc(-c4ccco4)nn3c2O)N2CCN(c3cccc(Cl)c3)CC2)cc1 (stereo not given) | -27.3%
24 | CCc1ccc2oc(C(=O)Nc3sc4c(c3C(=O)NC)CCCC4)cc(=O)c2c1 | -2.77%
25 | O=C(Nc1ccc(Cl)cc1F)c1cc(S(=O)(=O)NCc2ccc3c(c2)OCO3)ccc1F | -7.02%
26 | CCOc1ccc(C(=O)Nc2cccc(OCc3cc(=O)n4cc(C)sc4n3)c2)cc1 | 3.38%
27 | CCCCOC(=O)c1cccc(NC(=O)c2cc3ccccc3o2)c1 | -2.25%
28 | COc1cccc(CNCCSc2nnnn2C)c1OCc1ccccc1F | 7.94%
29 | CCCCn1cc(S(=O)(=O)c2cccc(C)c2)c(=O)c2cc(F)c(N3CCOCC3)cc21 | -14%
30 | O=C(NCCc1ccccc1)c1ccc(CSc2nc3ccncc3n2Cc2ccc(F)cc2)cc1 | 0.425%
31 | Cc1ccc(-c2nnn3c2nc(NCC(C)c2ccccc2)c2ccccc23)cc1 (stereo not given) | -10.6%
32 | COc1cccc(CNC(=O)c2ccc3c(c2)nc2n3CCOC2)c1 | -3.65%
33 | CCOC(=O)CSc1nc2sc3c(c2c(=O)n1-c1ccccc1)CC(C(C)C)OC3 (stereo not given) | 0.263%
34 | CCOc1ccc(CNC(=O)c2ccc(CS(=O)Cc3ccc(Cl)cc3)o2)cc1 (stereo not given) | -10.7%
35 | CCN(Cc1ccccc1)C(=O)CN1C(=O)COc2ccc(S(=O)(=O)NC3CCCC3)cc21 | 4.34%
36 | CCOC(=O)c1[nH]c(C)c(C(=O)NC(CC)Cc2ccccc2)c1C (stereo not given) | 13%
37 | O=C(CN1C(=O)COc2ccc(S(=O)(=O)NC3CCCC3)cc21)Nc1ccc(Cl)cc1 | 20.6%
38 | CC(=O)Nc1ccc(NC(=O)CSc2nc3ccccc3nc2N2CCCCC2)cc1 | -2.26%
39 | CCN1CCN(c2ncnc3c2cnn3-c2ccc(C)c(C)c2)CC1 | 15.3%
40 | Cc1ccc(C)c(NC(=O)Cn2c(=O)n(CC3CCCO3)c(=O)c3ccccc32)c1 (stereo not given) | -4.38%

Row | SMILES | inhibition
41 | COc1ccc(C(=O)Nc2cc(C)c(O)c(-c3nc4ccccc4s3)c2)cc1OC | -5.15%
42 | Cn1c(-n2cccc2)c(-c2c(-c3ccccc3)[nH]c3c2c(=O)[nH]c(=O)n3C)c(=O)[nH]c1=O | -14.6%
43 | Cc1ccc2c(c1)N(CC(=O)NCCc1ccc(Cl)cc1)C(=O)c1cccnc1O2 | -5.93%
44 | Cc1cc(-c2ccc(S(=O)(=O)Nc3ccccc3F)s2)on1 | -2.93%
45 | CC(NC(=O)Cc1ccc(NC(=O)N2CCSc3ncccc32)cc1)c1ccccc1 (stereo not given) | 5.23%
46 | O=C(NCc1ccccc1)C(=O)Nc1ccc2nc3n(c(=O)c2c1)CCCCC3 | -7.06%
47 | COc1ccccc1NC(=O)CN1C(=O)C2(SCC(=O)N2c2ccc(F)c(F)c2)c2ccccc21 (stereo not given) | -8.32%
48 | Cc1nnc(NC(=O)c2nc(SCc3ccccc3F)ncc2Cl)s1 | -1.8%
49 | COc1cc(NC(=O)CSc2nc(-c3ccco3)cc(C(F)(F)F)n2)cc(OC)c1OC | 5.78%
50 | CCc1cc(C(=O)NCc2ccccc2)no1 | -14%
51 | Cc1ccc(CN2COc3ccc4c(-c5ccccc5)cc(=O)oc4c3C2)cc1 | -16.6%
52 | Cc1cc(C)nc(-n2nc(C)c3c2N(C)C(=O)CC3c2ccc(Cl)cc2)n1 (stereo not given) | 18.5%
53 | Cc1c(C(=O)Nc2cccc(Cl)c2)oc2ccc(S(=O)(=O)N3CCCCCC3)cc12 | -8.28%
54 | COC(=O)c1ccc(C2c3c(-c4ccccc4O)n[nH]c3C(=O)N2Cc2ccncc2)cc1 (stereo not given) | 10.7%
55 | COc1ccc(-c2nc(CNS(=O)(=O)c3ccc(Br)cc3)cs2)cc1 | 7.09%
56 | CC(C)c1nn2c(=O)cc(COC(=O)c3ccccc3NC(=O)COc3ccccc3)nc2s1 | 9.38%
57 | Cc1nnc(NC(=O)CSc2nccn2Cc2ccc(F)cc2)s1 | -5.44%
58 | CCOc1ccccc1NC(=O)c1c(NCc2cccs2)sc2c1CCC(C)C2 (stereo not given) | 11.1%
59 | CCC(=O)N1CCc2cc(OC)c(OC)cc2C1COc1ccccc1OC (stereo not given) | -25.8%
60 | Cc1cccc(OCc2ccc(-c3nc(C#N)c(NCc4cccnc4)o3)o2)c1 | -5.43%
